Assay results as given in the supplement of paper PMC4967469.

Key:
Assay in all cases: Viability of human cancer cell lines after 72 h of drug (GDSC screen)
AUY922 = compound: CCNC(=O)c1noc(-c2cc(C(C)C)c(O)cc2O)c1-c1ccc(CN2CCOCC2)cc1 [AUY922]; conditions: top dose 0.256 µM; top dose inferred
Description: (§1)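 Human cancer cell lines in 384-well plates, medium with 10% serum, drug for 72 h over a 256-fold dose range (nine 2-fold or five 4-fold steps up to the top dose). Adherent lines were fixed and stained with the nucleic acid dye Syto60, suspension lines read with resazurin; signal relative to control wells, capped at 0 and 100%. One two-parameter sigmoid per drug and line, fitted in a mixed model over all curves with the slope shared within a line.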

KIN001-270 = compound: Cc1ccc(Nc2cc(-c3cccc(N4C(=O)c5ccccc5C4=O)c3)ncn2)cc1NS(C)(=O)=O [KIN001-270]; conditions: top dose 20 µM; top dose inferred
Description: as §1

T0901317 = compound: O=S(=O)(c1ccccc1)N(CC(F)(F)F)c1ccc(C(O)(C(F)(F)F)C(F)(F)F)cc1 [T0901317]; conditions: top dose 10.24 µM; top dose inferred
Description: as §1

GNF-2 = compound: NC(=O)c1cccc(-c2cc(Nc3ccc(OC(F)(F)F)cc3)ncn2)c1 [GNF-2]; conditions: top dose 1.28 µM; top dose inferred
Description: as §1

Gemcitabine = compound: Nc1ccn([C@@H]2O[C@H](CO)[C@@H](O)C2(F)F)c(=O)n1 [Gemcitabine]; conditions: top dose 1.024 µM
Description: as §1

MP470 = compound: S=C(NCc1ccc2c(c1)OCO2)N1CCN(c2ncnc3c2oc2ccccc23)CC1 [MP470]; conditions: top dose 20 µM; top dose inferred
Description: as §1

Nilotinib = compound: Cc1cn(-c2cc(NC(=O)c3ccc(C)c(Nc4nccc(-c5cccnc5)n4)c3)cc(C(F)(F)F)c2)cn1 [Nilotinib]; conditions: top dose 2 µM
Description: as §1

LFM-A13 = compound: C/C(O)=C(\C#N)C(=O)Nc1cc(Br)ccc1Br [LFM-A13]; conditions: top dose 16 µM; top dose inferred
Description: as §1

TW-37 = compound: CC(C)c1ccccc1Cc1cc(C(=O)Nc2ccc(S(=O)(=O)c3ccccc3C(C)(C)C)cc2)c(O)c(O)c1O [TW-37]; conditions: top dose 5 µM
Description: as §1

Bicalutamide = compound: CC(O)(CS(=O)(=O)c1ccc(F)cc1)C(=O)Nc1ccc(C#N)c(C(F)(F)F)c1 [Bicalutamide]; conditions: top dose inferred
Description: as §1

[1] = top dose 1.024 µM, screen: GDSC drug entry 150
[2] = top dose 10 µM, screen: GDSC drug entry 1502

LS-1034 (large intestine, adherent)
AUC (AUY922): 0.639
IC50 (AUY922): 40.4 nM
AUC (KIN001-270): 0.968
IC50 (KIN001-270): > 20000 nM
AUC (T0901317): 0.986
IC50 (T0901317): > 10200 nM
AUC (GNF-2): 0.986
IC50 (GNF-2): > 1280 nM
AUC (Gemcitabine): 0.873
IC50 (Gemcitabine): > 1020 nM
AUC (MP470): 0.957
IC50 (MP470): > 20000 nM
AUC (Nilotinib): 0.986
IC50 (Nilotinib): > 2000 nM
AUC (LFM-A13): 0.976
IC50 (LFM-A13): > 16000 nM
AUC (TW-37): 0.68
IC50 (TW-37): 1050 nM
AUC (Bicalutamide; [1]): 0.985
IC50 (Bicalutamide; [1]): > 1020 nM
AUC (Bicalutamide; [2]): 0.984
IC50 (Bicalutamide; [2]): > 10000 nM

LU-65 (large cell lung carcinoma, suspension)
AUC (AUY922): 0.74
IC50 (AUY922): 89.4 nM
AUC (KIN001-270): 0.975
IC50 (KIN001-270): > 20000 nM
AUC (T0901317): 0.98
IC50 (T0901317): > 10200 nM
AUC (GNF-2): 0.987
IC50 (GNF-2): > 1280 nM
AUC (Gemcitabine): 0.76
IC50 (Gemcitabine): 421 nM
AUC (MP470): 0.946
IC50 (MP470): > 20000 nM
AUC (Nilotinib): 0.987
IC50 (Nilotinib): > 2000 nM
AUC (LFM-A13): 0.982
IC50 (LFM-A13): > 16000 nM
AUC (TW-37): 0.943
IC50 (TW-37): > 5000 nM
AUC (Bicalutamide; [1]): 0.987
IC50 (Bicalutamide; [1]): > 1020 nM
AUC (Bicalutamide; [2]): 0.981
IC50 (Bicalutamide; [2]): > 10000 nM

LU-134-A (small cell lung carcinoma, suspension)
AUC (AUY922): 0.587
IC50 (AUY922): 28.2 nM
AUC (KIN001-270): 0.982
IC50 (KIN001-270): > 20000 nM
AUC (T0901317): 0.986
IC50 (T0901317): > 10200 nM
AUC (GNF-2): 0.987
IC50 (GNF-2): > 1280 nM
AUC (Gemcitabine): 0.536
IC50 (Gemcitabine): 80.8 nM
AUC (MP470): 0.882
IC50 (MP470): > 20000 nM
AUC (Nilotinib): 0.977
IC50 (Nilotinib): > 2000 nM
AUC (LFM-A13): 0.973
IC50 (LFM-A13): > 16000 nM
AUC (TW-37): 0.717
IC50 (TW-37): 1340 nM
AUC (Bicalutamide; [1]): 0.987
IC50 (Bicalutamide; [1]): > 1020 nM
AUC (Bicalutamide; [2]): 0.985
IC50 (Bicalutamide; [2]): > 10000 nM

LU-139 (small cell lung carcinoma, suspension)
AUC (AUY922): 0.932
IC50 (AUY922): > 256 nM
AUC (KIN001-270): 0.923
IC50 (KIN001-270): > 20000 nM
AUC (T0901317): 0.92
IC50 (T0901317): > 10200 nM
AUC (GNF-2): 0.975
IC50 (GNF-2): > 1280 nM
AUC (Gemcitabine): 0.468
IC50 (Gemcitabine): 51.1 nM
AUC (MP470): 0.874
IC50 (MP470): > 20000 nM
AUC (Nilotinib): 0.94
IC50 (Nilotinib): > 2000 nM
AUC (LFM-A13): 0.98
IC50 (LFM-A13): > 16000 nM
AUC (TW-37): 0.73
IC50 (TW-37): 1720 nM
AUC (Bicalutamide; [1]): 0.979
IC50 (Bicalutamide; [1]): > 1020 nM
AUC (Bicalutamide; [2]): 0.969
IC50 (Bicalutamide; [2]): > 10000 nM

LU-165 (small cell lung carcinoma, suspension)
AUC (AUY922): 0.822
IC50 (AUY922): 174 nM
AUC (KIN001-270): 0.934
IC50 (KIN001-270): > 20000 nM
AUC (T0901317): 0.986
IC50 (T0901317): > 10200 nM
AUC (GNF-2): 0.988
IC50 (GNF-2): > 1280 nM
AUC (Gemcitabine): 0.858
IC50 (Gemcitabine): 1010 nM
AUC (MP470): 0.964
IC50 (MP470): > 20000 nM
AUC (Nilotinib): 0.987
IC50 (Nilotinib): > 2000 nM
AUC (LFM-A13): 0.984
IC50 (LFM-A13): > 16000 nM
AUC (TW-37): 0.946
IC50 (TW-37): > 5000 nM
AUC (Bicalutamide; [1]): 0.988
IC50 (Bicalutamide; [1]): > 1020 nM
AUC (Bicalutamide; [2]): 0.977
IC50 (Bicalutamide; [2]): > 10000 nM

MC-CAR (haematopoietic neoplasm, suspension)
AUC (AUY922): 0.584
IC50 (AUY922): 26.4 nM
AUC (KIN001-270): 0.962
IC50 (KIN001-270): > 20000 nM
AUC (T0901317): 0.97
IC50 (T0901317): > 10200 nM
AUC (GNF-2): 0.989
IC50 (GNF-2): > 1280 nM
AUC (Gemcitabine): 0.235
IC50 (Gemcitabine): 12.2 nM
AUC (MP470): 0.97
IC50 (MP470): > 20000 nM
AUC (Nilotinib): 0.981
IC50 (Nilotinib): > 2000 nM
AUC (LFM-A13): 0.966
IC50 (LFM-A13): > 16000 nM
AUC (TW-37): 0.397
IC50 (TW-37): 168 nM
AUC (Bicalutamide; [1]): 0.985
IC50 (Bicalutamide; [1]): > 1020 nM
AUC (Bicalutamide; [2]): 0.983
IC50 (Bicalutamide; [2]): > 10000 nM

A lower IC50 marks a more sensitive line; a fit beyond the top or the lowest dose is shown as a bound at that dose. AUC sums up the same curve from the lowest dose to the 256-fold higher top dose: 1 means no effect, lower means more sensitive. For part of these data: Where the top dose is marked as inferred, it was derived from the fitted curves, not read from the paper. For part of these data: Where an entry number is given, a second screen of the drug exists; the two often differ.
